Read counts are not given, so values of variants with three or more changes are uncertain.
B1: CPEB3 Ribozyme (parent)
chain: UAACAGGGGGCCACAGCAGAAGCGUUCACGUCGCAGCCCCUGUCAGAUUCUGGUGAAUCUGCGAAUUCUGCUGUAUAUCUC

Variants of: B1
Assay: self-cleavage, relative activity (ratio to wild type); higher = more cleavage; in vitro, sequencing
Method in brief: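 Relative activity was defined as the cleaved/total read fraction for a variant divided by the same fraction for the unmutated ribozyme. CPEB3 self-cleaving ribozyme libraries were made by rounds of error-prone PCR, barcoded, and transcribed in vitro with T7 RNA polymerase for 5 hours at 37°C, and cleavage ran through transcription plus a 15 min DNase I step before EDTA. Illumina sequencing of template-switched reverse transcripts gave the reads, and DNA sequencing mapped the barcodes. Averages come from three batches, using variants with at least 5 reads.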

Variant | self-cleavage
G8A U51A A57U | 0.06
G7U G22C U41A G73U | 0.11
G7U C23A U26C U41C A47C U76C | 0.14
G8A A35G U49C U80C | 0.25
G8A A13U C17A | 0.35
G8A A18G U41C A57G U76C | 0.07
G7A C17U G30U U41C U80C | 0.07
G7C C23U A57G U76C | 0.16
G7C A18G U60C A64G | 0.08
G7A C29U C50A A64G U76C | 0.06
G8A C32U U72C U80C | 0.26
G8U A15G A56U U76C | 0.2
G7U U51A U67A U74A A75G | 0.26
G8U C17U U31A C50U U51G U60C A64U | 0.06
G7C A18G A35G U41C U43A U78C | 0.62
G8A C17G A35U | 0.17
G7C A45G U58C U69C | 0.06
G8A U25A A28G C39U U67G U74C U78C | 0.03
G7U A20U A57G U72C A77G | 0.05
G8U A21G U26A A35U U48C A64U U72A | 0.05
G7C C14U G33C C38A U41C U48C | 0.02
G7A U49A G52A | 0.4
G7U G24A U31C | 0.4
G7U A20G A65G U69C | 0.06

Variant | self-cleavage
G8U G9U U31C U41C | 0.36
G8U A57G C68A U80A | 0.12
G8U A35U U51C U58C U69A | 0.1
G7A G33U U41C U60A U74C | 0.07
G7U A21G U69C U72C | 0.17
G8A C44U G53A | 0.06
G7C G24C U58C | 0.24
G7A A45U C62U U69C U72C | 0.06
G8A A47U G55A C71U | 0.04
G8A G36C U41C U43C C59A U80C | 0.06
G8A A35G U41C U72C U80A | 1
G7U A20G U26A U49C | 0.04
G8A U25C U26C U54C U72C | 0.08
G8A U26C G55A A64G U72A | 0.06
G8U A21G C23A U69A A75G | 0.11
G7C A15G A35U A45G U49A | 0.37
G8A A75G A77G | 0.09
G8A C12A U48A U69A U74C | 0.19
G8A A18U G24A U41G U54C A57G U80C | 0.04
G8A A35U U69A | 0.06
G7U A13U G30A C32A | 0.07
G7A U26A U41C A56U | 0.06
G7U A18U A35U U41A | 0.12
G8A G36A U41A U69C U72C A77U | 0.06

Variant | self-cleavage
G7A G10A A15U U25G U26G U74A | 0.03
G7A G10C A18G C23U U41A U54G | 0.03
G8A G16C G42A | 0.21
G8C U60A U69A | 0.05
G7A G9A U31C | 0.17
G7A U31C G53U A57G C59A | 0.06
G7U A28G C40U A45G U80A | 0.1
G7C U43A U49C U51C | 0.21
G7A C11U A28U | 0.06
G8U A21G U48C U60G C62U U72G | 0.02
G8A A64G C71A U72A U76C | 0.06
G8U A20G G55A U80C | 0.06
G7U G8A U43C U49C U60C U66C U78C | 0.06
G8U A13G C38A | 0.06
G8U U41C A57G U60A C62U | 0.07
G8A A13U U26G C32A | 0.06
G7U A13G A57C | 0.19
G7A A56U U58C U72A | 0.07
G8C A18G A28U U67C | 0.07
G8A U60C C79G | 0.07
G7A G19U A28G U31C A35U | 0.04
G8A U25C U78C | 0.18
G8A U41C G52U A57G | 0.32
G8A A21G U25A U72C | 0.32

Variant | self-cleavage
G7U C17U A28U A57G U67A | 0.07
G8C U25C U26C U69C U72A G73A A77G | 0
G8U U69A U72A A75G | 0.03
G8A A18G A28U U66C | 0.06
G8U G9A U51A U58G | 0.18
G8A U31C A65G U80C | 0.06
G8A A20G U54C A75U | 0.08
G8A A47G A57G U80C | 0.06
G8A A15G A20G A35G U69C | 0.02
G9A A13G A18U U41C G42C | 0.06
G8A A15G A65G U72C U74A U78C | 0.14
G9A A13C A47G A56G | 0.29
G8C C11U U25G U43C U51A C62U | 0.12
G8A U26C A35U | 0.24
G7C A18G A45U A56U U60C U69C | 0.12
G7A A35U U48C | 0.17
G8A A20C U31A | 0.35
G8A U43A A47U U69C | 0.06
G8A U66C A77G | 0.04
G8C U25C A65G U72C U74C | 0.05
G8A G10U A15U G16C U31C U58C A65G | 0.11
G7U G24A U26C U54C | 0.05
G8U U54C U76C | 0.16
G8U G33U A56G A77U | 0.15

Variant | self-cleavage
G7U A57G U72G | 0.25
G8U U26A G30U U76C | 0.09
G7C G30A C32A A45U U51C A64G | 0.05
G8A U60C U66G U80C | 0.08
G7U G9U U60C | 0.16
G8A U67C U72A | 0.11
G9A A13U U58C | 0.29
G8A A47U A77G | 0.15
G7U A18U A28G U41A | 0.15
G8A A21G U54C | 0.07
G7A A35U U41A | 0.12
G8A A15G C40U U48A A56G | 0.05
G7U A45G U51A | 0.42
G7U A20U U26A C37A A47G U49C | 0.22
G7A U49C U69C A77U | 0.17
G8A U43A U54G | 0.23
G8A A13U A15U U26A U51A U80C | 0.07
G8U A15U A20U C32A U43C G53U | 0.04
G7A U58A U78C | 0.07
G7U U48C U67A | 0.08
G8A A15G A18G U25C A28U | 0.05
G8A U25C U26C A56G | 0.24
G7C A18G A28G A65G U78C | 0.11
G7U A20U A56G U60G | 0.13

Variant | self-cleavage
G7C A18G U25A A28G G46A A65G U78C | 0.02
G8U U31A A47U U67A | 0.12
G8U U60A U66A | 0.14
G7A G10A U80C | 0.1
G8U A15G U31C A35U U41C | 0.16
G8A A45G U67C | 0.12
G8A A21G C38A U74C U80A | 0.03
G7C A45U G63C A65G U69A U80C | 0.08
G8A C12U U26C U41A A65G U72A U78C | 0.03
G8U A21G U58A A64G G70U | 0.05
G8A G16A A20G A21G A45U U54C C62U | 0.04
G7A U49C A57G | 0.37
G7U G10U A20U A35G U48A U74C | 0.04
G7U G9C A18C U25C U41G A57U | 0.05
G7U U25C U49C U80C | 0.03
G7C G9A A21G A77U | 0.05
G8A A21G A28U A35G A77G | 0.19
G8A A20U U67C | 0.15
G7U U43C U74A | 0.42
G8A U31A U60C U78C | 0.05
G8A C17U G30U C32U A35U A45U U48C | 0.04
G8A A45G A56U U66C | 0.12
G7U G8A A13U G22U | 0.06
G7A U25C A35G A56G U60A C62U | 0.08

Variant | self-cleavage
G7A U26C U58C A64G U72C | 0.05
G8A A18U U31C A35C U58C | 0.04
G7U U25C C40U A64G | 0.41
G7C A20G U31C U60A | 0.24
G7A A28U U54C U80C | 0.09
G8A A13U A35U A64G | 0.13
G7U A18U A45C U51C U54G A57C U76C | 0.11
G7U C12U A21G | 0.37
G7A G30C C50U | 0.18
G7U C14U U69C | 0.05
G8A G30C U31A | 0.21
G7U G16A A21G U31C | 0.14
G8C A15U A56G A57U U58C | 0.08
G8A A28C G52U U54G U60C A65G U66C | 0.06
G8U A18U U66C U74C | 0.1
G7U A56U U80C | 0.07
G8A U48C A65G U72C | 0.13
G7U G10C C40G U78C | 0.1
G8A A20G A21G U26A U74G U78C | 0.05
G8U U69C U72C U78C | 0.14
G7A U26C G30A U48C C59A U76C | 0.1
G8U A20U C34U U41C U67C | 0.09
G7U A15U U51A A65G | 0.19
